The results in this text go back to FireProtDB (doi:10.1093/oxfordjournals.jbchem.a124999).

The conditions of this series: Gallus gallus; pH 5.5; 35 °C; GdnHCl; Fluorescence; acetate 0.1 M; reversible: yes.

On to Lysozyme C wild type (letters omitted), for which the denaturant m value came to 2.7 kcal/mol/M, the “denaturant midpoint (higher = more stable)” value came out at 3.62 M and the unfolding free energy amounted to 9.8 kcal/mol.
